# Measurements as given in paper PMC4336329 (PLoS ONE, 2015).
# Screen size: about 310,000 compounds; about 2,200 (0.71%) showed an effect of 50% or more. The effect is printed as a negative number. Some of the results follow.
# Biological target: human ether-à-go-go-related gene (hERG) potassium channel (human, UniProt Q12809)
# Experiment: primary screen, population patch clamp on CHO cells stably expressing hERG
# Sequence of human ether-à-go-go-related gene (hERG) potassium channel (Q12809 whole entry, looked up): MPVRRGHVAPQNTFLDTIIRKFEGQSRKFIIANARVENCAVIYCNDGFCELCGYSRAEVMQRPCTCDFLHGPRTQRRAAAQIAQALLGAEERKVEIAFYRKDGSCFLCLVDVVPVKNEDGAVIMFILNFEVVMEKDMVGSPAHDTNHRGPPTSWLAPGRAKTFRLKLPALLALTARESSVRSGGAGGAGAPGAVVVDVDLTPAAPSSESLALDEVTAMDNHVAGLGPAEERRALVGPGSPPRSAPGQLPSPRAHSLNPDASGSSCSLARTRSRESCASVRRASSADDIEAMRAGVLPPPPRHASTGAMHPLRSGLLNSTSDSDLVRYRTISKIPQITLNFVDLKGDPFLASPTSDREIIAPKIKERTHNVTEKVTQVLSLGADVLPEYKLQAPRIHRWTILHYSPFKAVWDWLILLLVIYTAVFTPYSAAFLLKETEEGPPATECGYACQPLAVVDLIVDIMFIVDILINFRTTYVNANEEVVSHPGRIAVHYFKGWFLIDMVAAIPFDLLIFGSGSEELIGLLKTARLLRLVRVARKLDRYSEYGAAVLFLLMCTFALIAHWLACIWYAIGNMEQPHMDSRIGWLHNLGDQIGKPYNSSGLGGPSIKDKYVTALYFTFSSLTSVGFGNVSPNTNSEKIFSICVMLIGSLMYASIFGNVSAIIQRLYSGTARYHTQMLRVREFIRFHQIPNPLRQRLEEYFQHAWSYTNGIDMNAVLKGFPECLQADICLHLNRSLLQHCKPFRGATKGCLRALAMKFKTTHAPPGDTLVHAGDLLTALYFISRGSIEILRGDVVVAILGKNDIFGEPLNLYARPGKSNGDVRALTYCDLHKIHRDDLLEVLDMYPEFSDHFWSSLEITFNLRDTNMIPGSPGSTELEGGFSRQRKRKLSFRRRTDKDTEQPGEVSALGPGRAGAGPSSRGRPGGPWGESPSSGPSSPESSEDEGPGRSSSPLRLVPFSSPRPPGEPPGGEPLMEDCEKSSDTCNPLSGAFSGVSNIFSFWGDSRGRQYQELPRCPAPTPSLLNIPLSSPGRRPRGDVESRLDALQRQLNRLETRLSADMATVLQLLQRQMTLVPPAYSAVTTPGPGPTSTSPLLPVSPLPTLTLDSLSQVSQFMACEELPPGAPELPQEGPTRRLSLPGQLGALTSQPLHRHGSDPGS
row,Compound,"hERG current change (%, negative = inhibition) at 1uM"
1,Cc1ccc2[nH]c(=O)c3cc(C(=O)N(C)c4ccc(C)c(C)c4)sc3c2c1,12%
2,COc1ccc(/C(O)=C/C(=O)C(=O)NNC(=O)C(O)(c2ccccc2)c2ccccc2)cc1,10.1%
3,Cc1ccc2nc(N(CCN(C)C)C(=O)C3=COCCO3)sc2c1.Cl,-5.32%
4,O=C(O)c1cccc(NS(=O)(=O)c2cccc3cccnc23)c1,6.39%
5,CC1=NN(C(N)=S)C(=O)C1N=Nc1ccccc1 (stereo not drawn),21.3%
6,COc1cc(OC)c(C(=O)Nc2cccnc2)cc1OC,13.3%
7,CCOC(=O)N1CCN(C(=O)c2ccc(Cl)c(S(=O)(=O)N3CCOCC3)c2)CC1,-5.1%
8,O=C1CCc2cc(S(=O)(=O)NCCc3ccccc3)cc3c2N1CC3,2.08%
9,O=C(/C=C/c1ccco1)Nc1ccc2nc3n(c(=O)c2c1)CCCC3,3.83%
10,Cc1ccccc1C(=O)Nc1ccc(C(=O)N/N=C/c2ccncc2)cc1,7.48%
11,Cc1ccc2c(c1)-n1c(nc3cc(F)ccc3c1=O)C(Cc1ccccc1)NC2=O (stereo not drawn),14.9%
12,Cc1ccc2cc(C#N)c(N3CCCN(S(=O)(=O)c4ccc(F)cc4)CC3)nc2c1,12.5%
13,Cc1cc(C=C2C(=O)NC(=S)NC2=O)c(C)n1-c1ccc2c(c1)OCO2,4.91%
14,CCC(CO)NCCNC(CC)CO (stereo not drawn),17.3%
15,COc1cc(/C=C2/SC(=S)N(CC(=O)O)C2=O)ccc1OC(=O)c1ccco1,7.62%
16,Cc1ccc(NC(=S)N(CCCN2CCOCC2)Cc2ccco2)cc1,13.3%
17,O=S(=O)(CCc1nc2ccccc2o1)c1ccc2ccccc2c1,8.57%
18,Cc1nonc1CN(C)C(=O)CC1C(=O)NCCN1Cc1ccccc1F (stereo not drawn),11.4%
19,CCOC(=O)c1ccc(NC2c3ccccc3C(=O)N2c2cccnc2)cc1 (stereo not drawn),-3.3%

row,Compound,"hERG current change (%, negative = inhibition) at 1uM"
1,CCOC(=O)[C@H]1[C@H]2COc3ccc(Cl)cc3[C@@H]2N2C(=O)c3ccccc3NC(=O)[C@@]12C,3.55%
2,COc1ccc(OC)c(/C=N/n2c(COc3ccccc3)n[nH]c2=S)c1,12.6%
3,COc1ccc2oc(=N)c(C(=O)Nc3ccc(F)cc3)cc2c1,22.5%
4,Cc1ccc(C(=O)NCC(=O)OCC(=O)Nc2ccc(Cl)cn2)cc1,8.26%
5,CC1(C)CC(=O)c2cnc3nc4ccccc4n3c2C1,0.441%
6,COc1ccccc1C(=O)n1nc(-c2ccccc2)nc1NCc1ccco1,-14.3%
7,O=C(NCc1ccncc1)C(=O)NCC1OCCN1S(=O)(=O)c1cc(F)ccc1F (stereo not drawn),6.08%
8,CCOC(=O)c1c(NC(=O)C2C3CCC(O3)C2C(=O)O)sc2c1CCCC2 (stereo not drawn),16.7%
9,CCc1ccc(NC(=O)C(NS(=O)(=O)c2ccc3c(c2)CCN3C(C)=O)C(C)C)cc1 (stereo not drawn),8.51%
10,Cc1ccc(CS(=O)(=O)CC(C)(O)c2ccccc2)cc1 (stereo not drawn),13.1%
11,CC(=O)NCCn1ccc2ccccc21,-2.38%
12,Cc1ccc(OCCn2cc(Br)c(=O)[nH]c2=O)cc1,12.1%
13,Cc1ccccc1CSCC(=O)c1c(N)n(C)c(=O)n(C)c1=O,0.719%
14,CCN(CC)C(=O)C[n+]1cccc(C(N)=O)c1,8.47%
15,CCC(C)(C)NC(=O)CN(C(=O)CNS(=O)(=O)c1ccccc1)c1ccc2c(c1)OCCO2,12.7%
16,COc1cccc(COc2ccc3c(C)c(Cc4ccccc4)c(=O)oc3c2)c1,8.92%
17,Cc1c(C(=O)N/N=C/c2ccccc2)sc(=S)n1C,11.2%
18,COc1ccc(-n2cc(-c3ccc(Br)cc3)[nH]c2=S)cc1,14%
19,CCn1c(SCC(=O)NCC2CCCO2)nc2c(c1=O)SCC2 (stereo not drawn),14%

row,Compound,"hERG current change (%, negative = inhibition) at 1uM"
1,NC(=O)CCN(Cc1ccccc1)S(=O)(=O)c1ccccc1,-4.85%
2,CC1CCCCC1NC(=O)CCc1nc2sc3c(c2c(=O)[nH]1)CCCC3 (stereo not drawn),0.979%
3,CC/C(=N\NC(=O)c1c[nH]c2ccccc12)c1cccs1,9.67%
4,CC(C)(C)c1ccc(-c2nn(CCC#N)cc2/C=N/O)cc1,-3.26%
5,COc1ccc(NC(=O)c2ccc(OCC3CCCO3)cc2)cc1OC (stereo not drawn),9.78%
6,Cc1ccc(NC(=O)CSc2ccc(-c3ccccn3)nn2)cc1,6.1%
7,N/C(=N/S(=O)(=O)c1ccccc1)c1cccc([N+](=O)[O-])c1,4.16%
8,CCc1ccc(NC(=O)C2CCCN(S(=O)(=O)c3c(C)[nH]c(=O)[nH]c3=O)C2)cc1 (stereo not drawn),13.7%
9,N#Cc1cc2c(nc1SCC(=O)O)CCCCC2,8.54%
10,O=C(CN1C(=O)NC2(CCCc3ccccc32)C1=O)N1CCCCC1 (stereo not drawn),15.7%
11,COc1cc(OC)cc(C(=O)Nc2ccc(S(=O)(=O)Nc3cnc4ccccc4n3)cc2)c1,12.9%
12,CCOC(=O)N1CCN(C(=O)c2cccn3c(=O)c4c5c(sc4nc23)CCCC5)CC1,-8.93%
13,OCC1(Cc2ccccc2)CCCN(Cc2ccn[nH]2)C1 (stereo not drawn),0.885%
14,CCN(CC)S(=O)(=O)c1ccc(C(=O)OCC(=O)NCc2ccco2)cc1,-0.0945%
15,CN1CCC2(CC1)CC(NC=O)c1ccccc1O2 (stereo not drawn),19.3%
16,CN1C2CCC1CC(OC(=O)c1ccc(Cl)cc1)C2.Cl (stereo not drawn),-9.75%
17,C[C@H](NC(=O)[C@H]1N2C(=O)c3ccccc3C2SC1(C)C)C(=O)NCc1ccncc1 (stereo partly drawn),27.1%
18,COC(=O)c1cnn(-c2ccccc2)c1C(OC)OC,15.7%
19,CCOc1nnc(C)c2c(C)n(-c3cccc(OC)c3)nc12,12.7%
